In the supplement of paper PMC3334620:
Over roughly 33,000 sequences, “E-score (-0.5 to 0.5)” has its median near -0.054; the highest 2% begin near 0.35. The list shows a part of the results.

Each sequence was assayed against T1, Stb5 (UniProt P38699) (assay: PBM E-score (8-mer binding enrichment) (E-score (-0.5 to 0.5)); higher = stronger / more preferred TF binding; most listed sequences are background and not binding sites). Settings: protein concentration: 200 nM; construct: GST-full length.
T1 sequence: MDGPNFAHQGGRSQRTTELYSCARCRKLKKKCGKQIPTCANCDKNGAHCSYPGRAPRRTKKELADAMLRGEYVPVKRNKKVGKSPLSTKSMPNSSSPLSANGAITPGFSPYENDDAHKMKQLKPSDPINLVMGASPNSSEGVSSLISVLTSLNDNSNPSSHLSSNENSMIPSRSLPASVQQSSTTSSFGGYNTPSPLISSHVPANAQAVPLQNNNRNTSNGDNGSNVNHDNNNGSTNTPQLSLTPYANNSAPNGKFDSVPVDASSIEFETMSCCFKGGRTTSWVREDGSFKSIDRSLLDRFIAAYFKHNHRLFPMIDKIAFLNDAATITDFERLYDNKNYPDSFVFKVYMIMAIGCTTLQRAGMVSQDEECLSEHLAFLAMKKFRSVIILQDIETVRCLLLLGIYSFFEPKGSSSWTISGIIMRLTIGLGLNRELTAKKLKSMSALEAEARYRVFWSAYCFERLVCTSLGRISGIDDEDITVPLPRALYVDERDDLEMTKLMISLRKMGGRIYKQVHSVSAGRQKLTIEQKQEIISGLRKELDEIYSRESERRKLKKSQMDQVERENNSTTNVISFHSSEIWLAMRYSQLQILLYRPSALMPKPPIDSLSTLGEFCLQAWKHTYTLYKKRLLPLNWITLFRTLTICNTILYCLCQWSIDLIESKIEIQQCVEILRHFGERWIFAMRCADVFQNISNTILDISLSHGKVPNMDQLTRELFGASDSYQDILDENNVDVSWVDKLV
Outline: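 GST-tagged yeast TFs (full-length or DNA-binding domain) were made by PURExpress in vitro transcription/translation and applied at about 100-200 nM to universal all-10-mer Agilent arrays. The arrays were made double-stranded by primer extension, on fresh or once-stripped slides. Bound protein was detected with fluorescent anti-GST, and scans were normalised with masliner. Each ungapped eight-base word, pooled with its reverse complement, received an E-score (modified Wilcoxon-Mann-Whitney statistic) from the Universal PBM Analysis Suite.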

Sequence | PBM E-score
CTGGATAC | -0.114
ATTCTGCC | 0.0981
TAGCAGGA | -0.0294
AAGTTCTG | -0.231
CAGAGACC | -0.0121
AATAGAAG | -0.0985
GGGCGAAA | -0.0437
GTTTATCA | 0.102
ACGAGTTG | -0.239
ACGCGTTA | -0.114
GGAATGCA | -0.0982
AGTTAGAT | -0.209
AGAGACTG | -0.344
ACCGAGCA | 0.155
ACTCGCCA | -0.226
ATCACCGC | 0.447
CTCATAGC | -0.176
ACTTGCCA | -0.159
ATGTGAGG | -0.167
GAATTTTA | 0.167
AGGGGGAT | -0.0737
ACTAGAAC | -0.0405
ATTTATTC | 0.00246
GATCGATA | -0.179
GGTACATA | 0.201

Sequence | PBM E-score
GAAAACGC | -0.0942
CCACAGAA | -0.0806
AACACGAT | 0.0298
AATCGCAC | -0.0177
ATTGGGTA | -0.242
GGCCCTTA | 0.0831
ACGTAATA | -0.11
GCAACTCA | -0.0746
ACAATAAC | 0.0538
CCGGCGAC | 0.201
AGGGTTCC | -0.0764
ACAAAAGG | 0.0822
CTGAAGCA | -0.26
TAGCCTGA | -0.245
CCGCATCC | 0.0876
CTACCCAG | -0.25
CACTTAGG | -0.0713
ATTATAGA | 0.0974
CTCTTCGC | -0.0289
CAGGGGAG | -0.15
CGGTTACG | 0.22
AAAAAACC | 0.105
AGAGCCAA | -0.404
TGGGACCA | -0.16
GCTGGACA | -0.218

Sequence | PBM E-score
CTCCATAA | -0.0554
CTAAGACC | 0.22
AAGTGCCG | 0.409
GCGTGCAA | -0.143
CAGGAAGC | -0.293
AGATGTCC | 0.0605
AAAACCGG | 0.261
AGTGCCAC | -0.251
AAGCTGGG | -0.068
GAGTAAAA | -0.0321
ACTAAATG | -0.102
GTACGGTA | 0.123
GGCAGGAA | -0.199
ATCCGAAA | 0.173
ACCAAGAC | 0.0173
GTAGGGAC | -0.04
GAGGCGGC | 0.265
ACTGGTGC | 0.0493
TAGCCTAA | -0.133
CATATGAG | -0.0773
AGCTATAT | -0.13
CGCTGAAA | -0.0059
CCCTTCCC | -0.167
GCCTCCTA | -0.0585
TCAATTCA | -0.101

Sequence | PBM E-score
GGGCGAGA | -0.236
CCGCGAGG | 0.297
CTCTTCGA | 0.00351
AGTCTCCC | -0.0651
AGCGGACG | 0.284
CGGCCGAG | 0.127
CCCCAAGC | -0.00416
TCAATAGA | -0.228
ACAACGCC | 0.203
GAGAATGC | 0.0403
CCTAGGGA | -0.0248
CACAATTC | -0.0913
GAGCGCCC | 0.0509
TACATAAA | -0.151
AGTGCAAG | -0.0268
AGCGAGTC | -0.132
ATGGCCTC | -0.193
AACCGAGC | 0.17
GCCCACGA | -0.243
AATACCCG | 0.33
CTGGCAAA | -0.24
ATCTTCGA | -0.206
GTGCGATA | 0.139
GCGTGAAA | 0.0412
ACTCCAAT | -0.0633

Sequence | PBM E-score
ATGACTGC | -0.14
GAGTGTGC | -0.0762
CTGAACTC | -0.342
TCCTCCAA | -0.248
ATGACTTG | -0.187
ACTATGTA | -0.149
AGGTGTAA | 0.0835
ATCTCTGG | -0.212
CGCTGGTC | 0.0566
TGGTGACA | 0.0421
CCAGACAG | -0.145
ATCGCGAT | -0.00155
ATCTGGCG | 0.0981
CCTGTTAG | -0.039
ACTCGTAA | 0.0379
CCAACAGC | -0.0163
GAGGCGGA | 0.25
AAGTACCC | 0.0204
CATATATC | 0.127
GGGGCCGA | 0.158
TAGATCCA | 0.0564
CTGTGGCA | -0.279
AAGGTACT | -0.0323
ACTATCAC | -0.127
ACGGGGGC | 0.186

Sequence | PBM E-score
CGTGATTC | 0.0453
TCGCCACA | -0.0176
CATAGTAA | -0.181
CCTTTGAA | -0.208
ACTCCCCT | -0.0396
CGCCACAA | 0.0469
GATCCTAC | -0.102
CAAAGTGC | 0.0852
AAAAAATG | 0.00429
GTTATAGA | -0.0682
CGGCGGTA | 0.451
GGGAAGGA | -0.0839
CCAACGGC | 0.256
ATCTAACA | -0.227
ATGGAGCG | -0.0248
AGTGGTCG | -0.0369
CCTATACG | -0.2
TAGTTCAA | -0.125
GGAGTCCC | -0.0299
AACTCACG | -0.131
TAGTGAGA | -0.143
GACCTTAC | 0.0679
CGTGAATA | 0.108
CCCGGTGC | 0.315
CCCTATAC | -0.111

Sequence | PBM E-score
ATCGGACA | 0.332
ACCCCAAG | -0.116
CGGAAGCA | 0.152
ATTGGCGG | 0.203
TCCGCAAA | 0.177
GCGGCTGA | -0.119
CGGATTAG | 0.117
AAGATCTA | -0.149
AACGTCCA | -0.0958
CGATCGCG | 0.166
CGTGTTGC | 0.124
AGTAACTG | -0.148
AGCAAACT | -0.0382
ACGGACAA | 0.296
AAAATAGC | 0.0371
ACTTTTTC | -0.0329
CAGCCTCA | -0.337
ATATTCAC | -0.0956
GGCGTACA | 0.0284
ACGACTTC | -0.0712
CCACGTCC | 0.0378
CACTTATC | -0.0756
